Among all 310,000 compounds or so, about 2,200 (0.71%) showed an effect of 50% or more. The effect is printed as a negative number. The list shows a part of the results.
Target: human ether-à-go-go-related gene (hERG) potassium channel (human, UniProt Q12809)
Assay: primary screen, population patch clamp on CHO cells stably expressing hERG

Sequence of human ether-à-go-go-related gene (hERG) potassium channel (Q12809 whole entry, looked up): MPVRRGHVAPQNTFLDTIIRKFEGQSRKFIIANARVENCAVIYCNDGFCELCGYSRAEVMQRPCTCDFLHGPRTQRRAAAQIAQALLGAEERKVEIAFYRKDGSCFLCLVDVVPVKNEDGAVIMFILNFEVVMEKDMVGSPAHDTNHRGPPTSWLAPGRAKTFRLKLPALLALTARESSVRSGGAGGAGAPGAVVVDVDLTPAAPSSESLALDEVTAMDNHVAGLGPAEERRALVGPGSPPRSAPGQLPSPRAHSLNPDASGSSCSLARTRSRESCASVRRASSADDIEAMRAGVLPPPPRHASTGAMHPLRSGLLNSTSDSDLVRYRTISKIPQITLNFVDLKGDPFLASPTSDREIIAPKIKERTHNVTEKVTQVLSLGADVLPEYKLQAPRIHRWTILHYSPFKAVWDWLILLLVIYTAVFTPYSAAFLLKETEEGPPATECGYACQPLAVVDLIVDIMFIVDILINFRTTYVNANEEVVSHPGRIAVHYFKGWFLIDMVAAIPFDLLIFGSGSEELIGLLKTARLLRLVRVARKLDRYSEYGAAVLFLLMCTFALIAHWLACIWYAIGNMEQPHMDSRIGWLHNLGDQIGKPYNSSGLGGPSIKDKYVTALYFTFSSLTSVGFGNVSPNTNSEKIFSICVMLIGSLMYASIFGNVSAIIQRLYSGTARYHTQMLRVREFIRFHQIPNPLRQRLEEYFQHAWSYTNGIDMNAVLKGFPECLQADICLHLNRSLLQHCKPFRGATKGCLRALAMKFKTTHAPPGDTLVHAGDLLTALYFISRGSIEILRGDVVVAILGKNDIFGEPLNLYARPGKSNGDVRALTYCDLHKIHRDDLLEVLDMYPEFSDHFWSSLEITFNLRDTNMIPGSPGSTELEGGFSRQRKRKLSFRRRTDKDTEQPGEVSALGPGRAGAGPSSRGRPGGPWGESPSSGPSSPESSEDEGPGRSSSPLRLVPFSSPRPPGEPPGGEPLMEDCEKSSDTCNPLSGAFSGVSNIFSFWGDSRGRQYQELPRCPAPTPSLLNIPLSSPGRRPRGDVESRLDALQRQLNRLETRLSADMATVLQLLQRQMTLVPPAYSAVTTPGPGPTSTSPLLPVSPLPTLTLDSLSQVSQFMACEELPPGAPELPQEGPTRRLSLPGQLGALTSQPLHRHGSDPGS

Compound | hERG current change (%, negative = inhibition) at 1uM
COc1cc(C2SCC(=O)N2CCN2CCCCC2)ccc1O.Cl (centres unmarked) | 20%
Cc1ccc(OCC(=O)N(Cc2ccco2)C2CCS(=O)(=O)C2)cc1 (centres unmarked) | 6.27%
COc1cccc(C2C(C#N)=C(N)Oc3cc(N)ccc32)c1OC (centres unmarked) | 0.209%
COc1ccc(C(=O)c2ccc(OC)c(Br)c2)cc1Br | 11.2%
O=C(NNC(=S)NC(=O)c1ccccc1)c1cccc([N+](=O)[O-])c1 | 9.19%
NC(=O)CSc1nnc(-c2ccco2)n1-c1ccccc1 | 9.97%
NC(=O)CC(NC(=O)Cc1cccc2ccccc12)c1ccc(NCCc2ccc(F)cc2)c([N+](=O)[O-])c1 (centres unmarked) | 6.61%
COc1ccc(Cl)cc1NC(=O)NC(C)c1ccncc1 (centres unmarked) | 8.6%
c1ccc2[nH]c(CCNC3CCCCC3)nc2c1 | -1%
C=C(C)CC(NCc1ccco1)c1ccc(OC)cc1 (centres unmarked) | 7.21%
O=C(c1ccccc1)c1ccccc1C(=O)N1CCOCC1 | 15.2%
Cc1cc(C)c(NC(=O)c2cccc3c2C(=O)N(C2CCCCC2)C3)c(C)c1 | 13.3%
O=C(CSc1nnc(SCc2ccccc2)s1)N/N=C/c1c(Cl)cccc1Cl | -3.86%
Cc1ccc2cc(CN(CC3CCCO3)S(=O)(=O)c3ccc4c(c3)OCCO4)c(=O)[nH]c2c1C (centres unmarked) | 7.49%
Cc1ccc(SCC(=O)Nc2ccccc2C(=O)O)cc1 | 14.4%
Cc1cccc2cc(CN(CC(C)C)S(=O)(=O)c3ccccc3)c(=O)[nH]c12 | 10.5%
CCCC(=O)N1CCN(c2ccc(NC(=O)c3ccc(OCC)c([N+](=O)[O-])c3)cc2)CC1 | 7.77%
Br.C=CCN1C(c2ccc(Br)cc2)=CS/C1=C(/C#N)c1nnc(N2CCOCC2)n1-c1ccccc1 | 6.23%
CCN(CC)C(=O)CSc1nc2ccsc2c(=O)n1CCCC(=O)NCCc1ccc(S(N)(=O)=O)cc1 | 21%
Cc1ccccc1-c1nc(CSc2nc3c(c(=O)[nH]2)CCC3)c(C)o1 | 11.6%
O=C(Nc1cccc(C(=O)O)c1)Nc1ccccc1Cl | 17.1%
CCOC(=O)C1CCCN(C(=O)CSc2ccccc2)C1 (centres unmarked) | 8.01%
CCCNC(=O)c1n[nH]c(=O)c2ccccc12 | 14.3%

Compound | hERG current change (%, negative = inhibition) at 1uM
CC1CCN(C(=O)CN(Cc2ccc(F)cc2)S(C)(=O)=O)CC1 | 10.3%
C=CCn1c(SCC(=O)NC2CC2)nnc1-c1cccc(OC)c1 | 14.6%
O=c1c(-c2nc3ccccc3s2)cccn1Cc1ccc(Cl)c(Cl)c1 | 5.54%
COc1ccc(S(=O)(=O)N2CCN(Cc3ccccc3)CC2)cc1OC | 12.2%
O=C1c2ccccc2CCC12N=NCC2c1ccc(Br)cc1 (centres unmarked) | 3.38%
CCCCSc1nnc(CSc2ncccn2)n1C | 6.68%
COc1ccc(NC(=O)CCNS(=O)(=O)c2cccc3nsnc23)cc1OC | -1.41%
CCC1Oc2ccccc2N(CC(=O)NCCCN2CCN(c3ccc(OC)cc3)CC2)C1=O (centres unmarked) | -7.76%
Cc1ccccc1C(=O)Nc1nc2c(C)csc2c(=O)s1 | 18.3%
O=C(N/N=C/C1C(=O)NC(=S)N(c2ccccc2)C1=O)c1cc(Br)c(O)c(Br)c1 (centres unmarked) | 9.54%
Cc1cccc(NC(=S)NC(=O)c2ccco2)c1C | 0.151%
CC(C)NC(=O)c1sc2nc3c(c(-c4cccs4)c2c1N)CN(C)CC3 | -5.34%
COc1cc(CC(=O)NCc2ccccn2)cc(OC)c1OC | 3.9%
Cc1cccc(NC(=S)/N=C(\N)Nc2nc(C)c3ccccc3n2)c1 | 2.75%
COc1cccc(-n2c(C)cc(/C=C3/C(=N)N4C(=NC3=O)SN=C4S(C)(=O)=O)c2C)c1 | 10.3%
CN1C(=O)c2ccccc2NC(=O)[C@]12O[C@@H]2c1ccccc1 | 6.63%
Cn1nnc2cc(C(=O)Nc3ccccc3F)ccc21 | 23.9%
COC(=O)c1[nH]c2cccc(OC)c2c1NC(=O)CN1CC2(C)CC1CC(C)(C)C2 (centres unmarked) | 7.5%
COc1ccccc1C(O)(C(=O)NN(C)c1ccccc1)c1ccccc1OC | 13.8%
CSc1ccccc1C(=O)NC1CCCN(Cc2ccccc2F)C1 (centres unmarked) | 5.27%
CCOc1cc(C(=S)N2CCCC2)ccc1OC | 9.92%
O=C(NC1CCCCCC1)c1ccc2c(=O)n3c(nc2c1)CCCCC3 | -6.08%
CCCN1CCc2nc(SCC(=O)Nc3ccc(C)c(Cl)c3)[nH]c(=O)c2C1 | 12.9%

Compound | hERG current change (%, negative = inhibition) at 1uM
CC(C)NC(=O)NC(=O)COC(=O)c1ccc(S(=O)(=O)Nc2ccccc2)cc1 | 4.49%
O=C(O)CCC(=O)N1CCc2cc(S(=O)(=O)N3CCN(c4ccc(F)cc4)CC3)ccc21 | 10.2%
COCCSc1ccccc1C(=O)Nc1cc(C)on1 | 3.19%
COc1ccccc1-c1n[nH]c(=S)n1N | 6.71%
COc1ccccc1C(=O)COC(=O)Cn1nc(C)c([N+](=O)[O-])c1C | 7.96%
COc1cccc(-c2nnc(SCCOc3ccc4c(C)cc(=O)oc4c3)o2)c1 | 10.4%
CCN(CC)C(=O)CSc1nc(O)cc(=O)n1-c1ccccc1OC | 4.29%
CCOC(=O)c1cnn(-c2ncnc3sc4c(c23)CCC4)c1N | 8.48%
COc1ccc(C)cc1NC(=O)CN(C)S(=O)(=O)c1ccc2c(c1)CC(C)N2C(C)=O (centres unmarked) | 2.46%
O=C(N/N=C/c1ccsc1)c1cc2ccccc2o1 | 11.9%
O=C(Nc1nc(COc2ccccc2)cs1)C1CCC1 | -2.43%
CCN(C(=O)COC(=O)c1cc(-c2cccs2)nc2ccccc12)C1CCS(=O)(=O)C1 (centres unmarked) | -6.23%
Cc1ccc(/C=N/n2c(-c3cccc(Cl)c3)n[nH]c2=S)o1 | 9.44%
Cc1ccc(C)c(OCC(=O)Nc2cc(C(=O)O)cc(C(=O)O)c2)c1 | 11%
CCOc1cccc(-c2c(C(=O)N/N=C/c3ccc(Br)cc3)nnn2-c2nonc2N)c1 | 9.58%
COc1ccc(NC(=S)NCCCn2ccnc2)cc1 | 10.2%
O=C(Nc1ccc(F)cc1F)N1CCCCC1c1cccnc1 (centres unmarked) | 1.11%
N#CC1=C2SCN(Cc3ccccc3)CN2C(=O)CC1c1ccc2c(c1)OCO2 (centres unmarked) | -1.92%
CCN1C(=O)/C(=C2\SC(=S)N(NC(=O)c3cccnc3)C2=O)c2ccccc21 | 9.91%
Cc1noc(C)c1NC(=O)N1CCN(Cc2ccccc2)CC1 | 11.8%
O=S(=O)(c1cccc(C(F)(F)F)c1)N(CCCN1CCOCC1)Cc1cccs1 | -8.41%
CC12CC(c3ccccc3O1)C(C(=O)NCc1ccccc1)C(=O)N2 (centres unmarked) | 8.85%
COC(=O)c1c(NC(=O)C(=O)NCCCN2CCOCC2)sc2c1CC(C)(C)OC2 | 11.3%

Compound | hERG current change (%, negative = inhibition) at 1uM
FC(F)(F)c1ccccc1CN1CCCC(N2CCN(c3ccccc3)CC2)C1 (centres unmarked) | 17.4%
COc1cccc(NC(=O)CSc2nc3ncc(Br)cc3[nH]2)c1 | 12.8%
Cc1c(Cl)cccc1NC(=S)NNS(=O)(=O)c1ccc([N+](=O)[O-])cc1 | 18.6%
CCC(C)NS(=O)(=O)c1ccc(N)cc1 (centres unmarked) | 26%
CC(=O)Nc1ccc(S(=O)(=O)Nc2nc(C)cc(-n3nc(C)cc3C)n2)cc1 | 2.5%
COC(=O)c1cn(NC(=O)Cn2nc([N+](=O)[O-])c(Cl)c2C)c(=O)c2ccccc12 | 2.91%
Cc1cc(NC(=O)CCl)nn1C | -3.89%
CC1CCc2sc(NC(=O)c3ccc(N4C(=O)CCC4=O)cc3)c(C(N)=O)c2C1 (centres unmarked) | 8.88%
COc1ccc(N(CC(=O)N/N=C/c2ccc3c(c2)OCO3)S(=O)(=O)c2ccccc2)cc1 | 5.63%
CCc1cc(OCCCSc2nc(C)cc(=O)[nH]2)ccc1Cl | -3.79%
Cn1c(SCC(=O)NCc2ccc3c(c2)OCO3)nnc1C1COc2ccccc2O1 (centres unmarked) | -10.6%
CC1CCN(c2nc3c(c(=O)[nH]c(=O)n3C)n2CCCc2ccccc2)CC1 | -3.38%
COc1ccc(CN2CCS(=O)(=O)CC2)cc1OC | 10.9%
C=CCNC(=S)NCc1cccnc1 | 4.47%
COc1ccc(CCNC(=O)CCC(=O)Nc2ccc3nc(N4CCN(C)CC4)cc(C)c3c2)cc1OC | 5.53%
CCOC(=O)Cn1nnc(-c2ccc(SC)cc2)n1 | 19.5%
CN1CCN(CCCOc2ccc(-c3ccccc3)cc2)CC1.Cl | -38.8%
O=C(O)CNC(=O)c1cccc(C(F)(F)F)c1 | 8.98%
COCCNC(=O)CSc1nccn1Cc1ccc2c(c1)OCO2 | 8.62%
Cc1cc(C)n(CC(O)CN2C(=O)NC(C)(C)C2=O)n1 (centres unmarked) | 16.4%

— publication PMC4336329 (PLoS ONE, 2015)
